Tests used:
Conditions in all cases: both partners purified
[1] = biological target: T1, actin filament barbed ends elongating from unlabeled rabbit skeletal muscle actin (rabbit, UniProt P68135); test: single-filament microfluidics with fluorescence microscopy; zero force, striped filaments anchored by spectrin-actin seeds (Figure 1B), formin from solution; 0.5 µM unlabeled actin, 4 µM profilin, 100 mM KCl
[2] = biological target: T1, actin filament barbed ends elongating …; test: single-filament microfluidics with fluorescence microscopy; zero force, striped filaments anchored by spectrin-actin seeds (Figure 1B), formin from solution; 2 µM unlabeled actin, no profilin, 100 mM KCl
[3] = biological target: T1, actin filament barbed ends elongating …; test: single-filament microfluidics with fluorescence microscopy; zero force, striped filaments anchored by spectrin-actin seeds (Figure 1B), formin from solution; 2 µM unlabeled actin, 4 µM profilin, 100 mM KCl

B1: mDia2(SNAP-FH1-FH2-DAD-6xHis) (domain or fragment)
chain: not shown
notes: mouse formin mDia2, FH1-FH2-DAD, […] of […]; Formin homodimer; also called mDia2(FH1-FH2-DAD); Mouse mDia2(FH1-FH2-DAD); source: E. coli Rosetta 2 (DE3), purified; not shown: His6, C-terminal, kept
For B1, the koff [1] was 0.0003 s⁻¹, the koff [2] was 0.0015 s⁻¹ and the koff [3] was 0.00084 s⁻¹.

Source: paper PMC5969902, “Modulation of formin processivity by profilin and mechanical tension” (eLife, 2018)
